Experimental data as given in paper PMC9596831.
No constants are given. Whether binding was seen depends on the method and setting. For part of these data: Binding seen in cells or lysates may run through a third protein. Some binding calls cover weakened binding; strength is not graded here.

Amino acid sequences for entries named in this document (tags omitted).
UniProt P09429: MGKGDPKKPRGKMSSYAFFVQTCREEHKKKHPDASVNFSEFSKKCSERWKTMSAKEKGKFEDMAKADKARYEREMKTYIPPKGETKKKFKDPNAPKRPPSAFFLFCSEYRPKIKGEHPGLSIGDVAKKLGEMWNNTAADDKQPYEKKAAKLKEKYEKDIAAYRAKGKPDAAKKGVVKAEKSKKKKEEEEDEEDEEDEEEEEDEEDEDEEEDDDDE
UniProt Q13547: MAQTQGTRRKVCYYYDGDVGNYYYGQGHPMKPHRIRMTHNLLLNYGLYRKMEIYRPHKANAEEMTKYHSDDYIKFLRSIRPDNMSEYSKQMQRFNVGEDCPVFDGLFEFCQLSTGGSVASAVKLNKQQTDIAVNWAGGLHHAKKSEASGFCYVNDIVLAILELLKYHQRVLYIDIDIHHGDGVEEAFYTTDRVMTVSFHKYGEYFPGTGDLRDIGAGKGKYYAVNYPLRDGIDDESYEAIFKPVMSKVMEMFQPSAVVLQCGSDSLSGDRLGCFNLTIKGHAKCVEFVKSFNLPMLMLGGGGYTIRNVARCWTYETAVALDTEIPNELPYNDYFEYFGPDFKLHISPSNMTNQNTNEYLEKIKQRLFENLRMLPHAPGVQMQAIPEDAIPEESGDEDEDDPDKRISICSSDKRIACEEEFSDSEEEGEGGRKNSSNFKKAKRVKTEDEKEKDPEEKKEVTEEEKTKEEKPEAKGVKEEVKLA
UniProt O15379: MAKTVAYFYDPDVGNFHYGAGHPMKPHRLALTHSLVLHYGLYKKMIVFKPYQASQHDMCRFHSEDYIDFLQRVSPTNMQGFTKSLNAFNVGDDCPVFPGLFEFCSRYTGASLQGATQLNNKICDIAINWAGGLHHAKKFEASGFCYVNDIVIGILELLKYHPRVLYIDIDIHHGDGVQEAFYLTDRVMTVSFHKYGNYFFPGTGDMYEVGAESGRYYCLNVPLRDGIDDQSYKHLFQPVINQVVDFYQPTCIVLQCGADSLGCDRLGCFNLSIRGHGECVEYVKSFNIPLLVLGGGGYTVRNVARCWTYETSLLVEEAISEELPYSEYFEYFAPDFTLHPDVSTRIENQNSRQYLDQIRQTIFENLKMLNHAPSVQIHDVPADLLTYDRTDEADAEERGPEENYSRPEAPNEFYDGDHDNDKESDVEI
UniProt Q9UKV0: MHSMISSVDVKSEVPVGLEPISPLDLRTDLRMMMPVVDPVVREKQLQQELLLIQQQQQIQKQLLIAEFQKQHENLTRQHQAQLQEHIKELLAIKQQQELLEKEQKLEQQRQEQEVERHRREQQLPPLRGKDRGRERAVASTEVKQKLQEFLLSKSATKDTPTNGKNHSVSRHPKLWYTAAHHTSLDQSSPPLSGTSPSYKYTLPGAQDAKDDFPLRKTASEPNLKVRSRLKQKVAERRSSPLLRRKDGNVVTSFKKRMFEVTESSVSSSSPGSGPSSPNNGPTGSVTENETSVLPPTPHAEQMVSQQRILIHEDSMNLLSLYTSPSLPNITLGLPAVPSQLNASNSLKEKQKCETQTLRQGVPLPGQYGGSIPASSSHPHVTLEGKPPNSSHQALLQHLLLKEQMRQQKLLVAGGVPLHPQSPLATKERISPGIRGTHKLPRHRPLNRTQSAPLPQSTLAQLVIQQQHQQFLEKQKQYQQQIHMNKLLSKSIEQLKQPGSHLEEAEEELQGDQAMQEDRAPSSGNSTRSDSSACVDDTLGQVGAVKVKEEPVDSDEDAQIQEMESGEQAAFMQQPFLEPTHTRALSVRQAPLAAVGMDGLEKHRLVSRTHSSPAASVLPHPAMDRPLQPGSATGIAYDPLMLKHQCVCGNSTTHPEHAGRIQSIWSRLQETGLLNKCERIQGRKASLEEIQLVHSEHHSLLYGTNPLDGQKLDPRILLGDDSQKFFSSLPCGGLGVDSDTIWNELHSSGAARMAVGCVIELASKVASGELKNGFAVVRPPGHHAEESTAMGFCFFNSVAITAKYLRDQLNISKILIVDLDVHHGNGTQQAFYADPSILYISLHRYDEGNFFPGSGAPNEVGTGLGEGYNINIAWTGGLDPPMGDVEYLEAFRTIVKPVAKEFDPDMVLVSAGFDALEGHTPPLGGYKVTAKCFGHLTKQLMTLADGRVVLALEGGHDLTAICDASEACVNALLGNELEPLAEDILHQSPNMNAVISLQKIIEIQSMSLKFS
UniProt Q9UQL6: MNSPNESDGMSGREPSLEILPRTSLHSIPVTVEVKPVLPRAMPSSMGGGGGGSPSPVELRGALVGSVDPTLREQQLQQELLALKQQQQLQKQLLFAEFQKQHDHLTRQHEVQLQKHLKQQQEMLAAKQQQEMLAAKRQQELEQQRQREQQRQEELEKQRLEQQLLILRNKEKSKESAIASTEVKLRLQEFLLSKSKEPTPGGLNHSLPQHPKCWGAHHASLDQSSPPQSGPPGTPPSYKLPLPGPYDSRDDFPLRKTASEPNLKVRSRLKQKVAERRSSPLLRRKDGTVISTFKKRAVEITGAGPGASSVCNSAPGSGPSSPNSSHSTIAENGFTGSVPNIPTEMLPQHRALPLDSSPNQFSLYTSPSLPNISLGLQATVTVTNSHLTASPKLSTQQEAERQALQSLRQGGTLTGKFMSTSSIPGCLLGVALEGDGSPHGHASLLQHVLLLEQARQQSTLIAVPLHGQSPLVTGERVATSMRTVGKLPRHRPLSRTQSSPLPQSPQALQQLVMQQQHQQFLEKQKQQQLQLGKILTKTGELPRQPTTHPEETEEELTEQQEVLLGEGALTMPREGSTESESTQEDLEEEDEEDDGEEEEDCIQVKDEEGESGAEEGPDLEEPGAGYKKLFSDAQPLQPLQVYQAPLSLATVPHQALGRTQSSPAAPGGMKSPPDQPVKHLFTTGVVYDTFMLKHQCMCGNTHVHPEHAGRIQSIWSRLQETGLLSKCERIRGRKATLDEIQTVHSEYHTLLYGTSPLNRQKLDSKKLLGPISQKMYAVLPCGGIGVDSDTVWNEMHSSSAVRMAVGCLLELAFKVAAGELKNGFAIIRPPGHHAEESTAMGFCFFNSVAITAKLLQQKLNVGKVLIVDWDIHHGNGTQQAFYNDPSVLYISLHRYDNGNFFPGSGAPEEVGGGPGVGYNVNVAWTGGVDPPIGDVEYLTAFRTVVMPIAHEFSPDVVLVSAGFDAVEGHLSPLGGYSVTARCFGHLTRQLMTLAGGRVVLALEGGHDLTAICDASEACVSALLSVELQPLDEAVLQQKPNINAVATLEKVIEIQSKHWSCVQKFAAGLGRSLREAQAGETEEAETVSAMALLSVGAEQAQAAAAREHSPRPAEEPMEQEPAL
UniProt Q9UBN7: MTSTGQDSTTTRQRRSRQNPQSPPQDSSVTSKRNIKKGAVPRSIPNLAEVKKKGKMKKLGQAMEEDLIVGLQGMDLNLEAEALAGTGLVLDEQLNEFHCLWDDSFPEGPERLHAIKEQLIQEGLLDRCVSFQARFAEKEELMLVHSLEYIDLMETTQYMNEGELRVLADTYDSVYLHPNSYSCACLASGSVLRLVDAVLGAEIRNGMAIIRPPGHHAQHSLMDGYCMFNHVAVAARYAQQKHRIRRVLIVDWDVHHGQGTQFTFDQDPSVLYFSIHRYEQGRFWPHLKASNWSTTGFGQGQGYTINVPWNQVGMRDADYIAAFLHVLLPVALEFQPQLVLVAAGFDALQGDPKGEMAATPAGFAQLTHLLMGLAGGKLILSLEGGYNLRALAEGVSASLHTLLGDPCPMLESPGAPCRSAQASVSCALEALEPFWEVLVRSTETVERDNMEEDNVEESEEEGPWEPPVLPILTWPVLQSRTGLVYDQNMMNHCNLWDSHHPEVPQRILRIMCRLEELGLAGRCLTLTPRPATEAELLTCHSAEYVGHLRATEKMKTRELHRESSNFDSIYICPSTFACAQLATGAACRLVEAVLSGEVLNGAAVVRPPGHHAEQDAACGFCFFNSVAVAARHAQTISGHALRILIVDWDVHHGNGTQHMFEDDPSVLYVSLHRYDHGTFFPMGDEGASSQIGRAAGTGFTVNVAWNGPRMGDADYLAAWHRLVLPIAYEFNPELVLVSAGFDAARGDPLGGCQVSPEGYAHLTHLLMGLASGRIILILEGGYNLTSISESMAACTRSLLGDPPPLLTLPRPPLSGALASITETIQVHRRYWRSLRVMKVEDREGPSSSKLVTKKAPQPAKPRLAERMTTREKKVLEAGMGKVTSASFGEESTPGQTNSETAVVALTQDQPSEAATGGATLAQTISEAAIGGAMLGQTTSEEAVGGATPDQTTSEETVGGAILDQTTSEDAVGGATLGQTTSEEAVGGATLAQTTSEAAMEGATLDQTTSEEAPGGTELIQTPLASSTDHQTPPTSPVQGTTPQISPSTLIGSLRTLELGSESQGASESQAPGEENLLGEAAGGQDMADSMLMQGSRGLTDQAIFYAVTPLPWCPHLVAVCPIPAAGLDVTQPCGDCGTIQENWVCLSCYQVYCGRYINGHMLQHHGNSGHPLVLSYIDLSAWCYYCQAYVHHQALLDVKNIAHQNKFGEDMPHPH

B1: HDAC10, endogenous in U2OS cells (enzyme, UniProt Q969S8 1-669)
chain: MGTALVYHEDMTATRLLWDDPECEIERPERLTAALDRLRQRGLEQRCLRLSAREASEEELGLVHSPEYVSLVRETQVLGKEELQALSGQFDAIYFHPSTFHCARLAAGAGLQLVDAVLTGAVQNGLALVRPPGHHGQRAAANGFCVFNNVAIAAAHAKQKHGLHRILVVDWDVHHGQGIQYLFEDDPSVLYFSWHRYEHGRFWPFLRESDADAVGRGQGLGFTVNLPWNQVGMGNADYVAAFLHLLLPLAFEFDPELVLVSAGFDSAIGDPEGQMQATPECFAHLTQLLQVLAGGRVCAVLEGGYHLESLAESVCMTVQTLLGDPAPPLSGPMAPCQSALESIQSARAAQAPHWKSLQQQDVTAVPMSPSSHSPEGRPPPLLPGGPVCKAAASAPSSLLDQPCLCPAPSVRTAVALTTPDITLVLPPDVIQQEASALREETEAWARPHESLAREEALTALGKLLYLLDGMLDGQVNSGIAATPASAAAATLDVAVRRGLSHGAQRLLCVALGQLDRPPDLAHDGRSLWLNIRGKEAAALSMFHVSTPLPVMTGGFLSCILGLVLPLAYGFQPDLVLVALGPGHGLQGPHAALLAAMLRGLAGGRVLALLEENSTPQLAGILARVLNGEAPPSLGPSSVASPEDVQALMYLRGQLEPQWKMLQCHPHLVA
B2: HDAC7, endogenous in U2OS cells (enzyme, UniProt Q8WUI4 1-952)
chain: MDLRVGQRPPVEPPPEPTLLALQRPQRLHHHLFLAGLQQQRSVEPMRLSMDTPMPELQVGPQEQELRQLLHKDKSKRSAVASSVVKQKLAEVILKKQQAALERTVHPNSPGIPYRTLEPLETEGATRSMLSSFLPPVPSLPSDPPEHFPLRKTVSEPNLKLRYKPKKSLERRKNPLLRKESAPPSLRRRPAETLGDSSPSSSSTPASGCSSPNDSEHGPNPILGSEALLGQRLRLQETSVAPFALPTVSLLPAITLGLPAPARADSDRRTHPTLGPRGPILGSPHTPLFLPHGLEPEAGGTLPSRLQPILLLDPSGSHAPLLTVPGLGPLPFHFAQSLMTTERLSGSGLHWPLSRTRSEPLPPSATAPPPPGPMQPRLEQLKTHVQVIKRSAKPSEKPRLRQIPSAEDLETDGGGPGQVVDDGLEHRELGHGQPEARGPAPLQQHPQVLLWEQQRLAGRLPRGSTGDTVLLPLAQGGHRPLSRAQSSPAAPASLSAPEPASQARVLSSSETPARTLPFTTGLIYDSVMLKHQCSCGDNSRHPEHAGRIQSIWSRLQERGLRSQCECLRGRKASLEELQSVHSERHVLLYGTNPLSRLKLDNGKLAGLLAQRMFVMLPCGGVGVDTDTIWNELHSSNAARWAAGSVTDLAFKVASRELKNGFAVVRPPGHHADHSTAMGFCFFNSVAIACRQLQQQSKASKILIVDWDVHHGNGTQQTFYQDPSVLYISLHRHDDGNFFPGSGAVDEVGAGSGEGFNVNVAWAGGLDPPMGDPEYLAAFRIVVMPIAREFSPDLVLVSAGFDAAEGHPAPLGGYHVSAKCFGYMTQQLMNLAGGAVVLALEGGHDLTAICDASEACVAALLGNRVDPLSEEGWKQKPNLNAIRSLEAVIRVHSKYWGCMQRLASCPDSWVPRVPGADKEEVEAVTALASLSVGILAEDRPSEQLVEEEEPMNL
B3: HDAC8, endogenous in U2OS cells (enzyme, UniProt Q9BY41 1-377)
chain: MEEPEEPADSGQSLVPVYIYSPEYVSMCDSLAKIPKRASMVHSLIEAYALHKQMRIVKPKVASMEEMATFHTDAYLQHLQKVSQEGDDDHPDSIEYGLGYDCPATEGIFDYAAAIGGATITAAQCLIDGMCKVAINWSGGWHHAKKDEASGFCYLNDAVLGILRLRRKFERILYVDLDLHHGDGVEDAFSFTSKVMTVSLHKFSPGFFPGTGDVSDVGLGKGRYYSVNVPIQDGIQDEKYYQICESVLKEVYQAFNPKAVVLQLGADTIAGDPMCSFNMTPVGIGKCLKYILQWQLATLILGGGGYNLANTARCWTYLTGVILGKTLSSEIPDHEFFTAYGPDYVLEITPSCRPDRNEPHRIQQILNYIKGNLKHVV

How the values were obtained:
[1] = molecular target: FLAG-tagged HMGB1 (high-mobility group box 1) expressed in U2OS cells (UniProt P09429); test: co-IP; anti-FLAG (M2) beads on lysates of U2OS cells expressing pCDH-FLAG-HMGB1 (sh-ctrl); western blot for HDAC1-10; RIP lysis buffer, RNase-free, 4 h at 4 °C
[2] = molecular target: histone deacetylase 1 (HDAC1), endogenous in U2OS cells (human (endogenous in U2OS)) (UniProt Q13547); test: co-IP; IgG or anti-HDAC1 antibodies on lysates of U2OS cells expressing sh-ctrl or sh-VNGD; endogenous HMGB1 detected by western blot; RNase-free
[3] = molecular target: histone deacetylase 1 (HDAC1), endogenous in U2OS cells (human (endogenous in U2OS)) (UniProt Q13547); test: co-IP; two-step IP in U2OS cells expressing FLAG-HMGB1: first IP with anti-FLAG antibodies, elution with 3xFlag peptides, second IP with HDAC1 antibodies; lysis buffer 20 mM Hepes pH 7.8, 400 mM KCl, 0.5% NP-40
[4] = molecular target: Recombinant FLAG-tagged HMGB1 protein purified from 293T cells (UniProt P09429); test: pull-down; in vitro binding assay: recombinant FLAG-HMGB1 and HIS-HDAC1 with in vitro transcribed sense or antisense VNGD RNA; FLAG IP, western blot against HIS and FLAG; both purified
[5] = molecular target: pBIND-HMGB1 (mammalian two-hybrid fusion) (UniProt P09429); test: two-hybrid; mammalian two-hybrid: pBIND-HMGB1 and pACT-HDAC1 with pG5luc in U2OS cells after 48 h transduction with sh-ctrl or sh-VNGD; luciferase normalised to Renilla
[6] = molecular target: FLAG-tagged HMGB1 (high-mobility group box 1) expressed in U2OS cells (UniProt P09429); test: co-IP; two-step IP in U2OS cells expressing FLAG-HMGB1: first IP with anti-FLAG antibodies, elution with 3xFlag peptides, second IP with HDAC1 antibodies; lysis buffer 20 mM Hepes pH 7.8, 400 mM KCl, 0.5% NP-40
[7] = molecular target: FLAG-tagged HMGB1 (high-mobility group box 1) expressed in U2OS cells (UniProt P09429); test: co-IP; as a1, but U2OS cells with VNGD (lncRNA Vanguard) silenced by sh-VNGD
[8] = molecular target: high-mobility group box 1 (HMGB1), endogenous in U2OS cells (human (endogenous in U2OS)) (UniProt P09429); test: co-IP; IgG or anti-HMGB1 antibodies on lysates of control (pCDH-ctrl) or VNGD-overexpressing U2OS cells, with or without glucose for 24 h; endogenous HDAC1 detected by western blot; RNase-free

Row | Molecule | binding [1] | other results
1 | HDAC3, endogenous in U2OS cells (from UniProt O15379 1-428) (enzyme) | no binding | 
2 | HDAC9, endogenous in U2OS cells (from UniProt Q9UKV0 1-1011) (enzyme) | no binding | 
3 | high-mobility group box 1 (HMGB1), endogenous in U2OS cells (from UniProt P09429 1-215) |  | binding [2]: binds
4 | HDAC5, endogenous in U2OS cells (from UniProt Q9UQL6 1-1122) (enzyme) | no binding | 
5 | FLAG-tagged HMGB1 (high-mobility group box 1) expressed in U2OS cells (from UniProt P09429 1-215) |  | binding [3]: binds
6 | Recombinant His-tagged HDAC1 purified from E. coli (from UniProt Q13547 1-482) (enzyme) |  | binding [4]: binds
7 | pACT-HDAC1 (mammalian two-hybrid fusion) (from UniProt Q13547 1-482) (enzyme) |  | binding [5]: binds
8 | histone deacetylase 1 (HDAC1), endogenous in U2OS cells (from UniProt Q13547 1-482) (enzyme) | binds | binding [6]: binds; binding [7]: no binding (condition: with VNGD silenced (sh-VNGD)); binding [8]: binds
9 | HDAC6, endogenous in U2OS cells (from UniProt Q9UBN7 1-1215) (enzyme) | no binding | 
10 | B1 | no binding | 
11 | B2 | no binding | 
12 | B3 | no binding | 
